In PubChem BioAssay AID1508642 (National Center for Advancing Translational Sciences (NCATS), 2021):
Among all 43,000 compounds or so, about 200 (0.47%) were called active. Another 12% or so got no clear call; they are omitted. Calls follow the shape of the dose curve; as a rule, active = well fitted cell-killing curve with a large enough effect; inconclusive = small, poorly fitted or top-dose-only effect, or effect the other way; inactive = flat fitted curve, though single readings scatter. This is one part of the list.

assay: Cell viability qHTS assay in S16 Pmp22-F2sN cells; settings: S16 Pmp22-F2sN Schwann cells (luciferase reporters placed in the Pmp22 gene) viability, CellTiter-Glo, 24 h; series mostly up to 57.5 µM; activity change, negative = cytotoxicity: at the top concentration; also: nearly all actives have a fitted effect of over 65% in size
In short: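 Rat S16 Schwann reporter line, 24 h treatment with library compounds delivered at 23 nL per well. Cell viability by CellTiter-Glo luminescence.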
% is scaled to controls: 0 for no effect and ±100 for the full control effect.

SMILES	activity change, negative = cytotoxicity
Cc1cc(C)cc(NC(=O)c2sc3nc4n(c(=O)c3c2C)N=C(c2ccccc2)CS4)c1	inactive: -0.807%
COc1ccc(C2=C(C)C(=O)N(Cc3ccc(C(=O)NC(C)c4ccccc4)cc3)S2(=O)=O)cc1 (stereo not given)	inactive: 0.801%
CCOc1ccc(N2CC(c3nc4ccccc4n3CCCCOc3ccc(OC)cc3)CC2=O)cc1 (stereo not given)	inactive: -7.82%
Cc1cc(=O)n2nc(N3CCC(C(=O)Nc4c(C)cccc4C)CC3)sc2n1	inactive: 13.9%
Cc1cccc(OC(C)C(=O)Nc2nonc2-c2ccc(Br)cc2)c1C (stereo not given)	inactive: -13.5%
O=C(NC1CCCCCC1)C1c2ccccc2C(=O)N1Cc1ccc(F)cc1 (stereo not given)	inactive: -5.64%
COc1ccc(CNC(=O)CN2C(=O)CSc3ccc(S(=O)(=O)N(C)C)cc32)cc1	inactive: 8.81%
CC1CCN(S(=O)(=O)c2cc3c4c(c2)C(C)C(=O)N4CCC3)CC1 (stereo not given)	inactive: -5.99%
Cc1cccc(N2C(=O)CSC23C(=O)N(CC(=O)Nc2cccc(Cl)c2)c2ccccc23)c1 (stereo not given)	inactive: -16.5%
COc1ccc(OC)c(CNC(=O)c2ccc3nc(C(C)C)oc3c2)c1	inactive: -3.59%
COc1cc(OC)c(NC(=O)c2c(N3CCCC3=O)c3cc(C)ccc3n2C)cc1Cl	inactive: 7.04%
CC(C)Oc1ccc(CNC(=O)c2ccc3c(c2)nc2n3CCCCC2)cc1	inactive: -4.68%
CCOc1ccccc1NC(=O)Cn1ncc2c([nH]c3ccccc32)c1=O	inactive: 0.776%
Cc1ccccc1OCC(=O)Nc1nnc(S(=O)(=O)N2CCCC2)s1	inactive: 1.19%
CCc1c(C)sc2c1CCN(C(=O)Nc1ccccc1C(=O)OC)C2c1ccc(OC)cc1 (stereo not given)	inactive: 20%
COc1ccc(OC)c(C2Nc3c(C)cc(C)cc3-c3cc(C)nn32)c1 (stereo not given)	inactive: -2.88%
Cc1ccc(NS(=O)(=O)c2ccc3c(c2)CC(=O)N3)cc1Cl	inactive: 2.07%
Cc1ccc(-c2cc3ncc(C(=O)c4cc(Cl)c(C)cc4O)cn3n2)cc1	inactive: 12.3%
Cc1ccc(Cl)cc1NC(=O)C(Cc1ccccc1)NS(=O)(=O)c1cccc2nsnc12 (stereo not given)	inactive: 7.71%
O=C(NCc1ccc(Cl)cc1)C1=Cc2cc(Br)ccc2OC1	inactive: 2.26%
CCOc1ccc(NC(=O)CN2C(=O)C(c3ccc(Cl)cc3)=NC2(C)C)cc1	inactive: 8.41%
CCC(=O)N1CCc2cc(Br)cc(S(=O)(=O)N3CCCC(C(=O)Nc4cc(C)ccc4OC)C3)c21 (stereo not given)	inactive: 10.2%
CCn1c(=O)cc(OCC(=O)N(C)c2ccc(OC)cc2)c2ccccc21	inactive: -17%
CC(C)c1ccc(C2=CC(c3cccc(Cl)c3)n3c(nc4ccccc43)N2)cc1 (stereo not given)	inactive: -19.3%

SMILES	activity change, negative = cytotoxicity
Cc1ccc(Cl)cc1N1CCN(C(=O)c2cc3ccc4cccnc4c3[nH]2)CC1	inactive: -10.6%
Cc1nc2cccnc2n1-c1cccc(C(=O)N2CCN(c3cccc(Cl)c3)CC2)c1	inactive: -15.5%
COc1ccc(-c2nnc(SCC(=O)NCCc3ccc(OC)c(OC)c3)nc2-c2ccc(OC)cc2)cc1	inactive: -4.55%
Cc1ccc(C)c(N2CCN(S(=O)(=O)c3cc(-c4cc(C)no4)ccc3C)CC2)c1	inactive: -9.14%
CSc1ccc(CCNC(=O)c2cc(C)nc3c2c(C)nn3-c2ccccc2)cc1	inactive: -5.98%
CC1=Nc2cc(C(=O)NCc3ccccc3Cl)ccc2Sc2c(C)ccc(C)c21	inactive: 0.212%
Cc1cc(C)c(NC(=O)Cn2nc(-c3ccncc3)ccc2=O)c(C)c1	inactive: -26%
CCCn1c(=O)n(-c2ccccc2Cl)c(=O)c2sc3ccccc3c21	inactive: 12.8%
O=C(CN1C(=O)C(c2ccc(F)cc2)=NC12CCCCCC2)Nc1ccccc1Cl	inactive: 10.3%
Cc1nc2c(-c3ccc(F)cc3)c(C)nn2c(C)c1CCC(=O)N1CCN(c2ccccc2)CC1	inactive: -1.46%
CCCCn1c(SCC(=O)c2ccccc2)nc2c(sc3ccccc32)c1=O	inactive: -1.19%
CCN(C(=O)Cn1nnc2sc3c(c2c1=O)CCC(C(C)(C)C)C3)c1cccc(C)c1 (stereo not given)	inactive: 0.437%
Cc1ccc(-n2nc3ccc(NC(=O)COc4ccccc4C)cc3n2)cc1	inactive: 2.11%
CC(=O)c1ccc(N2CCN(C(=O)C3CCCN(S(=O)(=O)c4ccc(Br)s4)C3)CC2)cc1 (stereo not given)	inactive: -25.5%
COc1cc(CCC(=O)NCc2ccc3c(c2)CCN3C(=O)c2ccccc2)cc(OC)c1OC	inactive: -20.7%
Cn1c(=O)oc2cc(S(=O)(=O)NCCC(=O)Nc3ccc(F)cc3F)ccc21	inactive: 2.17%
CCOC(=O)c1cc2c(=O)n3ccccc3nc2n(CCOC)c1=NC(=O)c1c(-c2ccccc2Cl)noc1C	inactive: 27.1%
COc1cccc(-n2c(=O)c3sc4ccccc4c3n(CC(=O)NC3CCCCC3)c2=O)c1	inactive: 3.9%
Cc1c(NC(=O)c2ccc(-c3cccc([N+](=O)[O-])c3)o2)cccc1-c1nc2cc(Cl)ccc2o1	inactive: 6.64%
CCCCC(=O)NC1CC(=O)N(c2ccc3c(c2)OCCO3)C1 (stereo not given)	inactive: 2.01%
COc1ccc(CNC(=O)Cn2c(=O)nc(-c3ccccc3)c3ccccc32)cc1OC	inactive: 5.75%
Cc1cc(OCC(=O)Nc2ncn[nH]2)ccc1Cl	inactive: 3.92%
Cc1ccc(S(=O)(=O)N(CC(=O)Nc2ccc3c(c2)OCO3)c2cc(Cl)cc(Cl)c2)cc1	inactive: -9.22%
CCN(CC)S(=O)(=O)c1ccc(OC)c(-n2cnnn2)c1	inactive: 14%

SMILES	activity change, negative = cytotoxicity
COc1ccccc1C(=O)Nc1cccc(C(=O)OCc2cc(=O)n3cc(C)sc3n2)c1	inactive: -2.77%
CC1=C(c2ccc(C)c(C)c2)S(=O)(=O)NC1=NCc1ccccc1Cl	inactive: 1.52%
Cc1cc(C)c(NC(=O)c2sc3nc(C)cc(C)c3c2NC(=O)c2ccccc2)c(C)c1	inactive: 0.0827%
CCOc1ccc(CCNC(=O)c2cn(C)c3ccc(S(=O)(=O)N4CCCCC4)cc3c2=O)cc1OCC	inactive: 5.67%
COc1ccc(-c2nc(C)c(CCNS(=O)(=O)c3cc(Cl)ccc3Cl)s2)cc1	inactive: -5.9%
CCOC(=O)c1sc2ncn(CC(=O)Nc3ccc(OCC)cc3)c(=O)c2c1C	inactive: -3.48%
CCC(=O)N1c2ccccc2CC1C(=O)NCCc1ccc(OC)c(OC)c1 (stereo not given)	inactive: -10.4%
Cc1c(C(=O)Nc2cccc(C(F)(F)F)c2)oc2ccc3c(c12)C(=O)CC(C)(C)O3	inactive: 28.6%
CCc1nc2nc(C)c(NS(=O)(=O)c3ccc(C(C)(C)C)cc3)c(=O)n2[nH]1	inactive: 2.16%
O=C(CCn1cnc2ccccc2c1=O)NCc1ccccc1Cl	inactive: -0.0827%
O=C(CNC(=O)c1ccc(F)cc1)OCc1cc(=O)n2nc(C3CC3)sc2n1	inactive: 12.3%
COc1cccc(CNC(=O)c2ccc3c(c2)c(C)c(C)n3Cc2ccccc2)c1	inactive: 9.05%
COc1ccc(CNC(=O)c2cc3cc4cc(OC)ccc4nc3o2)cc1	inactive: -5.55%
Cc1nnc(N2CCC(C(=O)NC3CCCCC3)CC2)c2nn(-c3ccccc3)c(C)c12	inactive: 4.71%
CCOc1ccccc1N(CC)C(=O)Cn1ncc2c([nH]c3ccccc32)c1=O	inactive: 1.4%
COc1ccc(OC)c(NS(=O)(=O)c2ccc3c(c2)C(C)(C)C(=O)N3C)c1	inactive: -2.66%
Cc1ccc(C)c(NC(=O)N2CCN(C(=O)c3nsc4ccccc34)CC2)c1	inactive: -3.62%
COc1cc(Cl)c(C)cc1NC(=O)C1CCN(c2nc3ccccc3n3cccc23)CC1	inactive: -5.99%
O=C(c1ccccc1)N1CCN(CCc2ccncc2)CC1	inactive: 1.81%
Clc1cccc(-c2ccc(CNCCSc3nnnn3-c3ccccc3)o2)c1	inactive: -3.33%
O=C(Nc1cc(-c2nc3cc(Cl)ccc3o2)ccc1Cl)c1ccco1	inactive: 1.17%
CC1CCCN(C(=O)CSc2c3c(nc4cc(Cl)ccc24)CCCC3)C1 (stereo not given)	inactive: 4.73%
CCc1ccc(NC(=O)CSc2nc(=O)n(Cc3ccccn3)c3c2CCC3)cc1	inactive: 7.06%
O=C(Nc1nnc(S(=O)(=O)N2CCCc3ccccc32)s1)c1cccc(Cl)c1	inactive: -2.91%

SMILES	activity change, negative = cytotoxicity
COc1cccc(C2C(C(=O)Nc3ccc(C)cc3C)=C(C)Nc3c(C(=O)Nc4ccccc4)cnn32)c1 (stereo not given)	inactive: -29.9%
COC(=O)c1ccc(C2c3c(-c4ccccc4O)n[nH]c3C(=O)N2Cc2cccnc2)cc1 (stereo not given)	inactive: -1.4%
COc1ccc(NC(=O)c2cc(S(=O)(=O)N3CCOCC3)ccc2OC)cc1	inactive: 1.43%
CCc1cccc(C)c1NS(=O)(=O)c1c(C(=O)N2CCC(C)CC2)c(C)n(C)c1C	inactive: 3.08%
COc1ccc(S(=O)(=O)N2CCC(C(=O)Nc3ccc(Oc4ccccc4)cc3)CC2)cc1	inactive: -8.63%
CC(C)Cn1cc(NC(=O)N2CCN(c3cccc(Cl)c3)CC2)c2ccccc2c1=O	inactive: 4.02%
Cc1ccc(C)c(N2CCN(S(=O)(=O)c3ccc4[nH]c5c(c4c3)CCCCC5)CC2)c1	inactive: 0.363%
COc1ccccc1CNS(=O)(=O)c1ccc2c(c1)CC(C)N2C(C)=O (stereo not given)	inactive: -27.6%
O=C(NCc1ccccc1)c1ccc(CNS(=O)(=O)c2ccc(Br)cc2)cc1	inactive: 19.3%
CC1CCN(S(=O)(=O)c2ccc3c(c2)N(CC(=O)NC(C)c2ccccc2)C(=O)CS3)CC1 (stereo not given)	inactive: 2.49%
Cc1ccc(-c2nc(NC(=O)CSc3cc(C)c4ccccc4n3)ns2)cc1	inactive: 6.65%
Cc1cc(C)c(NC(=O)c2cc(S(=O)(=O)N3CCC4(CC3)OCCO4)ccc2F)c(C)c1	inactive: 12.3%
COc1cc(Cl)c(S(=O)(=O)NCCc2c(C)[nH]c3c(C)cccc23)cc1Cl	inactive: -6.41%
Cc1ccc(NC(=O)Cc2ccc(-n3c(C)nc4cccnc43)cc2)c(Cl)c1	inactive: -27.4%
CCOc1ccc(NC(=O)Cn2ncc3c2-c2cc(C)ccc2OC3)cc1	inactive: -0.309%
CCC(=O)N1CCc2cc(Br)cc(S(=O)(=O)CCC(=O)NCc3ccccc3OC)c21	inactive: -2.34%
CCOC(=O)c1[nH]c(C)c(CCC(=O)N2CCN(c3cccc(OC)c3)CC2)c1C	inactive: 5.52%
COc1ccc(CCNC(=O)C(=O)Nc2ccccc2F)cc1	inactive: -3.59%
COc1ccccc1C(=O)NCCn1cc(SCC(=O)Nc2ccccc2F)c2ccccc21	inactive: 15.5%
Cc1ccc(CNC(=O)C(=O)Nc2c3c(nn2-c2ccccc2)CSC3)cc1	inactive: -24.6%
COc1ccc(C(=O)N2c3ccccc3C(C)(c3ccc(Cl)cc3)CC2(C)C)cc1 (stereo not given)	inactive: -9.07%
COc1ccc(CCNC(=O)c2c(O)nc3c(C)cccn3c2=O)cc1	inactive: 3.69%
Cc1ccc(-c2onc(C)c2C)cc1S(=O)(=O)N1c2ccccc2CC1C (stereo not given)	inactive: -11.7%
